SMILES strings stand for the structures. Whole data set: some 110,000 compounds, median “z-score” near -0.1, cut for the highest 2% near 2. The list shows a part of the results. Activity calls are given as the source filed them.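 Rule for the calls: active = z-score in the third read window above 3 or below -3; inactive = the rest.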

For 110 compounds, z-score results are on record in PubChem BioAssay AID488969 (Vanderbilt High Throughput Screening Facility, 2010).

For the experiment, the target named is Metabotropic glutamate receptor 8 (Rattus norvegicus) (UniProt P70579). As to the kind of experiment: mGluR8 Gi/Go-coupled signaling modulation – cell-based, rat, thallium flux, HTS, primary screen (AID 488969). Particulars: HEK293 rat mGluR8, GIRK (G protein-gated inwardly rectifying potassium channel) thallium flux, FluoZin2; at 10 µM; stronger effect = higher value; submaximal glutamate (EC20) added with thallium.
Sequence of UniProt P70579 (P70579 whole entry, looked up): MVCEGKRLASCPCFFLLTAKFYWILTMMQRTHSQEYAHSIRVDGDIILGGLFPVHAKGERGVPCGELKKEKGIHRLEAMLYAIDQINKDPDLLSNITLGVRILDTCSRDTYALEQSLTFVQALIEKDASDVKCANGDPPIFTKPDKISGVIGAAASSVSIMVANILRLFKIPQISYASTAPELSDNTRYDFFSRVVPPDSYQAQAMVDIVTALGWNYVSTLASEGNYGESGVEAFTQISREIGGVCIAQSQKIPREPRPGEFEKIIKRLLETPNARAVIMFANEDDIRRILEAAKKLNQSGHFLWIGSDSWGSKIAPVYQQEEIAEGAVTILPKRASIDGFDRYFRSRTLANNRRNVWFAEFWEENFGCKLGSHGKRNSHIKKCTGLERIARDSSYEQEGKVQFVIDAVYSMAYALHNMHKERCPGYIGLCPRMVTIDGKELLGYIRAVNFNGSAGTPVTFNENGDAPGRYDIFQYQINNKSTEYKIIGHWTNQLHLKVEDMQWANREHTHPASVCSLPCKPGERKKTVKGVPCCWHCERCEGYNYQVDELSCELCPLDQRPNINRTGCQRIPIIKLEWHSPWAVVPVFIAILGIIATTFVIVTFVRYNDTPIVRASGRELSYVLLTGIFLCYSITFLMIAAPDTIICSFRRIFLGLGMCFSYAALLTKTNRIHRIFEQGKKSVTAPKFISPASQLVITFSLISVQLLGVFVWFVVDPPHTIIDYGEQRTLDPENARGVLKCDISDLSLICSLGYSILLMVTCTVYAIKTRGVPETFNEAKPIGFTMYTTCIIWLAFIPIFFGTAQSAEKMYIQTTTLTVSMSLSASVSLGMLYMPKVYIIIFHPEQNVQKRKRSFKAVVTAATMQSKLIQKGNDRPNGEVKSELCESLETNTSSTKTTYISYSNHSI
Regarding `Cc1ccc(NC(=O)N(CCCN2CCOCC2)Cc2cccnc2)cc1C`, the z-score was 0.519. Under `O=C(C1CC1)N1CCc2[nH]c3ccccc3c2C1` stands -0.366; under `CCC(C)NC(=O)CSc1ccc(Cl)cc1` (stereo not given), -0.0343; under `CCOCCNC(=O)c1ccc2c3c(cccc13)CC2`, -0.367. Compound `COc1cc2cc(CN(CCc3cccc(C)c3)C(=S)NCCCN(C)C)c(=O)[nH]c2cc1OC` displayed a z-score of -0.102. `Cc1ccc(C2(CCN)CCOC(C(C)C)C2)cc1` (stereo not given) returned a z-score of 0.445. With `Clc1cccc(-c2nnc(SC/C=C/c3ccccc3)n2Cc2ccco2)c1` the figure was -0.854; with `Oc1ccc2[nH]cnc2c1CN1CCCCC1`, 0.149; with `CCOc1ccc(NC(=O)CCSc2nnc(C)s2)cc1`, -0.0489. Compound `COc1c(Cl)cc(C(=O)Nc2ccccc2-c2ccccc2)cc1Cl` showed a z-score of -0.38. Under `CC1(C)Cc2ccccc2-c2nnc(-c3ccc4ccccc4n3)n21` stands -0.669; under `CCOC(=O)C1=C(N)N2C(=O)CSC2=C(C(=O)OC)C1`, -0.493; under `CN(C)Cc1nc2c([nH]1)c(=O)n(C)c(=O)n2C`, -0.0706. As to `CC1=Nc2ccccc2/C1=C\c1sc(Nc2ccc(C)cc2)nc1O`, the z-score was -0.00838. Under `O=C(c1cc([N+](=O)[O-])ccc1N1CCCCC1)N1CCCC1` stands 0.437; under `COc1ccc(-c2noc(N3CCC(C(=O)N4CCN(c5ccccn5)CC4)CC3)n2)cc1`, 0.828. With `Fc1ccc(CSc2ccc(-c3cccs3)nn2)cc1` the figure was 0.256. The compound `COc1ccc(N2C(=O)CC(N3CCC(c4nc5ccccc5[nH]4)CC3)C2=O)cc1` (stereo not given) had a z-score of 0.404.

With `CCc1ccc(NC(=O)N(Cc2ccco2)C(C)c2cccs2)cc1` (stereo not given), the z-score was -0.86. `CCn1nc(C(=O)Nc2cccc(C(F)(F)F)c2)c(Cl)c1Cl` had a z-score of -0.195. With `CCCCCOc1ccc(C2NC(=O)NC2=O)cc1` (stereo not given) the figure was -0.531; with `CC(C)N(C(=O)CSc1nnc(CNc2ccc(F)cc2)o1)C(C)C`, 0.768; with `O=C1NC(=S)N/C1=C/c1cccc([N+](=O)[O-])c1O`, -0.173.

Turning to `[O-][n+]1onc2c1CCc1nnccc1-2`, the z-score came out at 0.0617. Under `N#CC(C#N)=C1CCc2ccccc2N1` stands 0.151.

As to `COc1ccc(-c2nnc3n2-c2ccccc2SC3)cc1OC`, the z-score was found to be 0.00806. As for `CCc1cccc2c(C=C(C#N)C#N)cn(CC(=O)N3CCCC3)c12`, the z-score worked out at 0.0864. As for `CC1=CCC(C(=O)O)(C(=O)N/N=C/c2cccs2)C(c2ccc([N+](=O)[O-])cc2)C1` (stereo not given), the z-score was 0.0201. Consider `CCOc1ccccc1N(C(=O)Nc1cccc(Cl)c1)C1=NC(C)CS1` (stereo not given), for which the z-score was -0.262. Take `CCN1CCN(c2ccc(NC(=O)c3cccc(OCc4ccccc4)c3)cc2)CC1`: the z-score came to 0.152. As for `CCCOc1ccc(CCN2CCC(=O)NC2=O)cc1C`, the z-score is -0.241. For the compound `CCOC(=O)CCP(=O)(O)C(O)(c1ccccc1)c1ccccc1`, the z-score is 0.107. With `CCCN(CCC)S(=O)(=O)c1ccc(NS(C)(=O)=O)cc1` the figure was 0.465; with `Cn1nnnc1SCC(=O)NCc1cccc(C(=O)O)c1`, -0.667. With `COc1ccccc1C(=O)Nc1ncc2c(n1)CC(c1ccco1)CC2=O` (stereo not given) the figure was -0.749; with `CCN1CCN(CC(=O)Nc2cc(F)ccc2C)CC1`, 0.149; with `CN(C)S(=O)(=O)NCc1ccc2c(c1)OCO2`, -0.0624. The compound `CN(Cc1ccccc1)Cc1c[nH]c2ccccc12` returned a z-score of 0.302. In the case of `CCCCCC(C)n1[nH]c(=O)c2c(C)cc(C)nc21` (stereo not given), the z-score was -0.343.

Compound `Cn1cnnc1Sc1ccc(C(=O)OCC(=O)Nc2cc(Cl)cc(Cl)c2)cc1[N+](=O)[O-]` yielded a z-score of -0.215. Under `Cc1ccc(OCC(=O)NCC(=O)Nc2ccc(F)cc2)c([N+](=O)[O-])n1` stands -0.232.

`CCOC(=O)c1cc(C)[nH]c(=S)c1C#N`: the z-score was -0.21.

Turning to `O=C(CSc1ncn[nH]1)c1cccc([N+](=O)[O-])c1`, the z-score is -0.14.

On to `Cc1ccc(CSc2ccc(-c3ccc4c(c3)OCO4)nn2)cc1`, for which the z-score is -0.188. In turn, `CC(C)(C)c1ccc(CS(=O)(=O)CC2(O)CCN(C(=O)c3cccc(C(F)(F)F)c3)CC2)cc1` yielded a z-score of -0.302. As for `COC(=O)c1sccc1NC(=O)COc1ccccc1Cl`, the z-score is -0.212. The compound `O=C(CCCOc1ccc(Cl)cc1Cl)NCC1CCCO1` (stereo not given) gave a z-score of -0.403. Under `O=c1c2c(nc3c(-c4ccccc4)c[nH]n13)CCC2` stands -0.819. With `CCC1CCCCN1C(=O)CSc1nnc(-c2ccc3c(c2)OCCO3)o1` (stereo not given), the z-score stood at 0.663.

The compound `COc1ccc(C2C(C#N)=C(N)N(Nc3ccccc3)C3=C2C(=O)CC(C)(C)C3)cc1C` (stereo not given) yielded a z-score of 0.00246. Compound `Cc1ccccc1NC(=O)Nc1nc2ccc(S(C)(=O)=O)cc2s1` returned a z-score of 0.0297. Under `CC(C)(C)c1ccc(CNc2cc(N3CCOCC3)ccc2[N+](=O)[O-])cc1` stands -0.109; under `Cc1ccc(CNC(=O)CSc2nc3ccccc3c(=O)n2CCCO)cc1`, 0.714; under `CCOC(=O)c1c(-c2ccc(OC)cc2)csc1NC(=O)CCN1C(=O)c2ccccc2C1=O`, -0.295. Turning to `CCOc1ccc(C2=NNC(c3cccs3)=Nc3ccc(OC)cc32)cc1`, the z-score is active: 3.11. Consider `O=C(CN1CCN(c2ccc(F)cc2)CC1)N1N=CCC1c1ccccc1` (stereo not given), for which the z-score was -0.196. Under `COc1cccc(N2CCN(C(=O)CN(C)S(=O)(=O)c3ccc4c(c3)CCC(=O)N4)CC2)c1` stands -0.236. `Cn1ncc(Cl)c1C(=O)Nc1cc(C(F)(F)F)ccc1F` displayed a z-score of 0.242.

In the case of `Cc1c(NC(=O)CSc2nnc3c4ccccc4n(CCc4ccccc4)c3n2)c(=O)n(-c2ccccc2)n1C`, the z-score is -0.952. `Cn1c(=O)n(CCc2ccccc2)c(=O)c2c1nc1n2CCN1Cc1ccco1` registered a z-score of -0.632.

The compound `CC1CCCN(C(=O)Cn2c(=O)oc3ccccc32)C1` (stereo not given) displayed a z-score of -0.144. Take `COC(=O)C1=NNCC12CC(=O)N(c1ccc(Br)cc1)C2=O` (stereo not given): the z-score was -0.0964. For `CCOc1ccc(S(=O)(=O)n2cc(-c3ccc(F)cc3)c(N)n2)cc1`, the z-score amounted to 0.129. As to `CC1(C)CC(=O)C(N=Nc2cc(Cl)c(Cl)c(Cl)c2)=C(O)C1`, the z-score was -0.43. With `Cc1cc(C)n(-c2cc(Cl)cc(Cl)c2)c(=O)c1C#N` the figure was -0.0415. On to `COc1ccc(-c2nnn(CC(=O)NCCc3c[nH]c4ccccc34)n2)cc1OC`, for which the z-score was -0.399. With `COc1cccc(/C=N/N2CCN(c3ccccc3OC)CC2)c1` the figure was 0.17. With `O=C(Oc1ccc(-c2ccccc2)cc1)N1CCCCC1` the figure was -0.0639; with `CC(C)OC(=O)c1c(NC(=O)c2ccco2)sc2c1CCCCC2`, -0.501; with `COc1ccc2nc(NC(=O)CSc3nccc(C)n3)sc2c1`, 1.81. Under `COc1ccc(NC(=O)Cn2c(=O)n(Cc3ccco3)c(=O)c3ccccc32)cc1` stands -0.236; under `Cc1c(NC(=O)NCCN2C(=O)C3C4C=CC(C4)C3C2=O)c(=O)n(-c2ccccc2)n1C` (stereo not given), -0.389. `O=C(C[n+]1ccc(C(=O)N/N=C/c2ccc(Br)cc2)cc1)c1ccccc1` gave a z-score of 0.236.

For `CCN(CCCNC(=O)CN1C(=O)COc2ccccc21)c1cccc(C)c1`, the z-score is -0.133. The compound `COc1ccccc1C(=O)C(O)c1ccccc1OC` (stereo not given) came in with a z-score of -0.247. Under `Cc1ccc2nc(-c3ccc(NS(=O)(=O)c4ccc(F)c(F)c4)cc3)sc2c1` stands -1.63; under `CCN(CC)S(=O)(=O)c1ccc2c(c1)C(=NO)c1cc(S(=O)(=O)N(CC)CC)ccc1-2`, -0.117; under `Cc1cc(C)cc(-n2c(N)c(C(=O)Nc3c(C)n(C)n(-c4ccccc4)c3=O)c3nc4ccccc4nc32)c1`, 0.0565.

`O=C(Nc1cccnc1)c1ccccc1F`: the z-score amounted to 0.0767. Under `Cc1ccc(NS(=O)(=O)c2cccc(C(=O)N3CCOCC3)c2)cc1` stands 0.907; under `CCN(CCO)C(=O)C(c1ccccc1)c1ccccc1`, -0.118; under `CC(NC(=O)Cc1cccs1)C(c1cccs1)N1CCN(c2ccccc2)CC1` (stereo not given), -0.107. Under `CCSC1=C(C#N)C(c2cccc(OC)c2)CC(=O)N1` (stereo not given) stands 0.0816; under `Cc1ccc(NC(=O)c2ccc(OC(=O)CCN3C(=O)c4ccccc4C3=O)cc2)cc1`, 0.0217. In turn, `CCOc1ccc(C(=O)NNC2CC(=O)N(CCc3ccccc3)C2=O)cc1OC` (stereo not given) registered a z-score of -0.0282.

In the case of `CCCCOc1ccc(S(=O)(=O)NNC(=O)c2cc3ccccc3o2)cc1`, the z-score is -0.113.

The compound `Cc1ccc(C(=O)Nc2nc(COc3ccccc3)cs2)s1` displayed a z-score of 0.226. Under `CCCn1c(=O)c(C(=O)NCc2ccccn2)c(O)c2ccccc21` stands -0.781; under `O=C(NCc1ccncc1)C(=O)NCC(c1ccco1)N1CCN(c2ccccc2F)CC1` (stereo not given), -0.192; under `CNc1nc(OCCNC(=O)Nc2ccccc2)nc(N2CCOCC2)n1`, -1.08.

For the compound `COc1ccc(CC(=O)Nc2ccc(-c3noc(-c4ccccc4OC)n3)cc2)cc1`, the z-score was 0.0856. With `Cc1cccc(N2CCN(C3=NC(=O)/C(=C\c4cn[nH]c4-c4ccccc4)S3)CC2)c1` the figure was 0.239. In turn, `O=C1NCC(c2ccccc2)C1C(=O)N/N=C\c1ccc(-c2ccc(Cl)c(Cl)c2)o1` (stereo not given) registered a z-score of 0.0259.

Compound `Cc1cc(C)n(S(=O)(=O)c2ccc(C(C)(C)C)cc2)n1` yielded a z-score of -1.41. Under `CCOC(=O)C(=CNc1cc(C)nn1C(C)(C)C)C(=O)OCC` stands -0.0177; under `COC(=O)/C(=N/Nc1ccccc1Cl)Sc1nnc(C(O)c2ccccc2)n1-c1ccccc1` (stereo not given), -0.58. Under `COc1ccc(NC(=O)C2CCN(C(=O)c3cccs3)CC2)cc1` stands 0.195. In turn, `CC1CC(C)CN(c2cc(=O)n(Cc3ccc(F)cc3)c(=O)[nH]2)C1` (stereo not given) yielded a z-score of -0.074.

In the case of `COc1cc(NC(=O)C2CC(=O)NC3=C2C(=O)CCC3)c(OC)cc1Cl` (stereo not given), the z-score was -0.0285. Under `COc1ccc(C(=O)N(CN2CCCC2=O)c2nccs2)cc1OC` stands 0.187; under `NC(=S)N/N=C\c1c2ccccc2cc2ccccc12`, 0.0922. With `C/C(=N/NC(=O)c1ccc(O)cc1)c1cccc([N+](=O)[O-])c1` the figure was -0.369.

For the compound `COC(=O)C1C(=O)OC(C)(C)C1C(C)C(=O)c1ccccc1` (stereo not given), the z-score is -0.375. As for `Cc1ccc(NC(=O)c2csc(-c3ccccc3)c2C)cc1`, the z-score is -0.222.

In the case of `CC(=O)c1oc2ccccc2c1NC(=O)CN1CCCCC1`, the z-score was -0.887. Under `O=C(N/N=C/c1cccnc1)C(O)(c1ccccc1)c1ccccc1` stands -0.223. For the compound `CCOC(=O)c1[nH]c2ccc(OC)cc2c1NC(=S)N1CCN(c2ccccc2OC)CC1`, the z-score is -0.555. In the case of `CC(C)OC(=O)CC12CN3CN(C1)CC(CC(=O)OC(C)C)(C3)C2=O`, the z-score is active: 3.43. `CCOC(=O)N1CCN(CCC(=O)Nc2ccccc2OC)CC1` returned a z-score of -0.0533. The compound `Cc1ccc(Cc2cncc(O)c2)cc1S(=O)(=O)O` yielded a z-score of 0.05.
